Results: publication PMC4336329 (PLoS ONE, 2015)
Hit rate of the full screen: of about 310,000 compounds, about 2,200 (0.71%) showed an effect of 50% or more. Effects have a minus sign here. The list shows a part of the results.

What follows are compounds tested against human ether-à-go-go-related gene (hERG) potassium channel (human, UniProt Q12809) (assay: primary screen, population patch clamp on CHO cells stably expressing hERG).
Sequence of human ether-à-go-go-related gene (hERG) potassium channel (Q12809 whole entry, looked up): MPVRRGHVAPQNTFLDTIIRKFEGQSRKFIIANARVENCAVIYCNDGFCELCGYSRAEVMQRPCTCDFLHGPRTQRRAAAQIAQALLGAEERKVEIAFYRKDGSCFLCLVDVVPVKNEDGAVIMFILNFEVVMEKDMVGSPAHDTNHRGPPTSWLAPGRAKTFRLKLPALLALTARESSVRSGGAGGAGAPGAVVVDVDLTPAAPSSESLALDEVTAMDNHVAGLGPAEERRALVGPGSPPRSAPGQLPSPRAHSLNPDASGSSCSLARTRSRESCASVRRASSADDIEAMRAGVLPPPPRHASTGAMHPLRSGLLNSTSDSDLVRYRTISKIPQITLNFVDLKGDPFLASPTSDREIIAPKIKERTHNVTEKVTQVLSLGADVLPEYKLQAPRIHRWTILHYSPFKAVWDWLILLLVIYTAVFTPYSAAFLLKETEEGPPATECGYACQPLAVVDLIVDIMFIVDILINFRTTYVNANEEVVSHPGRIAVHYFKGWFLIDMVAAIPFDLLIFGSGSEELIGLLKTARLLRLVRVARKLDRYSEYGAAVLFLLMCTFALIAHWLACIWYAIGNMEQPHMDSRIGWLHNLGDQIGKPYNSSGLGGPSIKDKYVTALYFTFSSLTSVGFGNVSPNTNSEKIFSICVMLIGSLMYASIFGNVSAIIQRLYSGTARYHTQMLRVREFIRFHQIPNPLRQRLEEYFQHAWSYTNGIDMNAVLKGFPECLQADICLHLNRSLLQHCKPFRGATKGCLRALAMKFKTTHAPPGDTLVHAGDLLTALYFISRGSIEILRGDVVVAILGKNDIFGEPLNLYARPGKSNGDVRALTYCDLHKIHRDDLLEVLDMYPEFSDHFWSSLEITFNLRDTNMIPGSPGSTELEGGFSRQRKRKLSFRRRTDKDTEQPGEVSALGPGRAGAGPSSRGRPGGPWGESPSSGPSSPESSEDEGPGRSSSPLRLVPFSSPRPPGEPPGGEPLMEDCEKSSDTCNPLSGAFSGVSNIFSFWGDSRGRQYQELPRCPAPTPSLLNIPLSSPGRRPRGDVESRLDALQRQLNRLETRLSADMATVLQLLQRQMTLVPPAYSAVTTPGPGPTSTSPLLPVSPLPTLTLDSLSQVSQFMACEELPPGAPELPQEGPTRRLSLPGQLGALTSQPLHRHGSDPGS

Compound	hERG current change (%, negative = inhibition) at 1uM
COc1ccc(Br)cc1C(=O)N/N=C/c1ccc2c(c1)n(C)c(=O)n2C	11.8%
CCOC(=O)c1sc(NC(=O)COC(=O)CNC(=O)c2ccco2)c(C(=O)OCC)c1C	17%
COc1ccc(CC(=O)Nc2ccc(S(=O)(=O)Nc3cc(OC)nc(OC)n3)cc2)cc1	11.6%
O=C(CCNC(=O)C1CCN(S(=O)(=O)c2ccc(F)cc2)CC1)NCc1ccc(F)cc1	8.89%
COC(=O)CSc1nnc(SCc2ccc(OC)cc2)s1	12.6%
COc1cc(/C=C/C(=O)c2c(O)cc(C)oc2=O)cc(OC)c1O	18.8%
CCSc1nnc(NC(=O)NC(CC)(C(F)(F)F)C(F)(F)F)s1	15.4%
Cc1csc(SC(C)C(=O)NCC2CCCO2)n1 (centres unmarked)	-4.59%
CC(C)C[C@H](NC(=O)NCCC1=CCCCC1)C(=O)O	-1.27%
O=C(Nc1cc(Cl)ccc1O)C1CC(c2c(F)cccc2Cl)=NO1 (centres unmarked)	16.6%
Cn1c2c(c(=O)n(C)c1=O)C(c1ccccc1OC(F)F)C1=C(CCCC1=O)N2 (centres unmarked)	2%
CCN(CC)CCOC(=O)c1ccc(NC(=O)c2ccc(Cl)c(S(=O)(=O)N3CCCCCC3)c2)cc1.Cl	13.5%
COc1ccc2[nH]c(=O)c(CN(C(=O)NC3CCCCC3)C3CCCC3)cc2c1	-6.77%
CCn1nc(C(=O)NNC(=O)c2ccccc2)c2ccccc2c1=O	6.09%
O=C(COc1ccc2ccccc2c1)NCC(=O)N/N=C/c1ccco1	-4.96%
COc1ccc(/C=N/N=C2/NC(=O)C(CC(=O)O)S2)cc1OS(=O)(=O)c1ccccc1 (centres unmarked)	12%
O=c1c2ccccc2nc(-c2ccccc2)n1Cc1ccco1	5.8%
O=C(NCc1ccc2c(c1)OCO2)c1nn2cccnc2c1Cl	1.79%
Cc1ccc(C(=O)Nc2ccc(N3CCOCC3)c3nonc23)cc1[N+](=O)[O-]	5.68%
O=C(CSc1n[nH]c(-c2ccccc2)n1)Nc1ncc(Br)cc1Br	5.13%
Cc1cc(C(=O)N/N=C/c2cc(Br)cc(Br)c2OC(=O)c2cccc(F)c2)n[nH]1	13.3%
CCOn1c(=O)c(-c2cc3ccccc3o2)[n+]([O-])c2ccccc21	11.2%
CCc1nn2c(=O)c(S(=O)(=O)Nc3ccccc3)c(C)nc2s1	10.3%

Compound	hERG current change (%, negative = inhibition) at 1uM
Clc1nnc(Cl)c2c1ncn2Cc1ccccc1	14.6%
CCN(C(=O)CSc1nnc(Cn2nnc3ccccc32)o1)c1nc(-c2ccccc2)cs1	2.49%
CC1OC(Nc2ccc(N=Nc3ccccc3)cc2)C(O)C(O)C1O (centres unmarked)	13.4%
CCC1CCCCN1C(=O)CNCC1CCCO1.Cl (centres unmarked)	7.5%
OCc1ccccc1N=Cc1cccnc1	8.66%
COc1ccc(/C=C2\CCc3c2nc2ccccc2c3C(=O)O)cc1OC	0.475%
Cc1ccc(N/C(=C\C(=O)c2ccccc2)C(=O)O)cc1	-6.7%
Cc1nn(CCOc2ccccc2)c(=O)n1-c1ccc(Cl)cc1	5.93%
Cc1ccccc1C(=O)NC(=S)NCCN1CCOCC1	9.75%
CCc1nnc(NC(=O)CSc2nnc(-c3ccncc3)n2C)s1	7.38%
CC1=C(C(=O)OCc2ccccc2)C(c2ccc(C#N)cc2)NC(=O)N1CCCC(=O)O (centres unmarked)	7.56%
CC(=O)c1c[nH]c(C(=O)Nc2ccc(N3CCCCCC3)cc2)c1	-3.54%
CCOC(=O)c1cnc(SCC(=O)Nc2nc(C)c(C)s2)nc1N	-15.6%
COC(=O)C1=C(C)N(C)C(=O)NC1c1cc2c(cc1Br)OCO2 (centres unmarked)	11.3%
COc1ccc(C2(C(=O)NCC3CCCO3)CCOCC2)cc1 (centres unmarked)	5.88%
CCc1ccc(NC(=O)CSc2nnc(CNC(=O)c3ccco3)o2)cc1	9.26%
O=C1COc2ccc(NC(=O)c3ccccc3C(=O)O)cc2N1	12.6%
O=C(Cc1ccc([N+](=O)[O-])cc1)OCc1ccc([N+](=O)[O-])cc1	12.5%
CCOc1ccc(N2C(=O)CC(n3nc(C)cc3C)C2=O)cc1 (centres unmarked)	3.53%
C/C(=N\Nc1nncc2ccccc12)c1ccc(OCC(=O)N(C)C)cc1	12.7%
O=C(CSCc1ccccc1Cl)N1CCN(c2ccccn2)CC1	7%
Cc1nnsc1S(=O)c1ccc(Cl)cc1 (centres unmarked)	13.3%
Cc1c(C(=O)N2CCCCC2)sc(NC(=O)C(C)C)c1C#N	5.08%

Compound	hERG current change (%, negative = inhibition) at 1uM
COc1cc(CC(=O)Nc2ccc(S(=O)(=O)NC3=NCCCCC3)cc2)cc(OC)c1OC	2.89%
O=C(c1ccccc1Cl)N(Cc1ccc(Cl)c(Cl)c1)N1C(=O)CCCC1=O	13.1%
CSCCOC(=O)COc1ccc(/C=N/NC(=O)c2nn(C)cc2Cl)cc1	-3.09%
CCCNC(=O)c1ccc(N2CCC3(CC2)CC(c2ccccc2)=NO3)c(N)c1	2.92%
N#Cc1cccc(NC(=O)c2ccc(S(=O)(=O)N3CCOCC3)cc2)c1	0.709%
CCC(C)NC(=O)CCC(=O)Nc1ccc2nc(N3CCOCC3)cc(C)c2c1 (centres unmarked)	5.35%
CCc1noc(C)c1C(=O)OCC(=O)c1ccc(OC)c(OC)c1	-2.05%
CCOC(=O)COC(=O)c1ccc(O)cc1	1.8%
COc1cccc(NC(=O)c2ccc3nc(C)sc3c2)c1	16.3%
CC1CSc2n(-c3cccc(C(F)(F)F)c3)cc(-c3ccccc3)[n+]21.[Br-] (centres unmarked)	-1.57%
COc1ccc(N(C(=O)CNC(=O)c2ccco2)C(C(=O)NC2CCCC2)c2cccnc2)cc1 (centres unmarked)	13.4%
CCCN(CC(=O)Nc1ccccc1OC)C(C)C(=O)NC(C)CCc1ccccc1 (centres unmarked)	9.31%
CCOC(=O)CNC(=O)C1CCCN(c2ncccn2)C1 (centres unmarked)	14.6%
C=CCOc1ccc(CNC(C)(C)CO)cc1OCC.Cl	7.42%
Cc1ccc(NC(=S)c2nc3ccccc3[nH]2)c(C)c1	14.6%
Cc1ccc(N=C2NC(=O)/C(=C/C=C/c3ccco3)S2)cc1	20.8%
COC(=O)COc1ccc(S(=O)(=O)N2CCN(c3ccccc3F)CC2)cc1	7.4%
CCC1CC(C)(C(=O)Nc2ccc(S(N)(=O)=O)cc2)OC1=O (centres unmarked)	5.22%
Cc1cc(C)n2ncc(S(=O)(=O)c3ccccc3)c2n1	11.8%
N#Cc1ccccc1OCC(=O)OCC(=O)NCc1ccc2c(c1)OCO2	6.99%
O=C(NCc1ccccc1)c1cccc(OCC(=O)N2CCN(C(=O)c3ccco3)CC2)c1	-2.57%
Cc1ccc(/C(O)=C/c2nc3cc(C)ccc3oc2=O)cc1	14.2%
Clc1ccc(Nc2ncn[nH]2)cc1	16.2%

Compound	hERG current change (%, negative = inhibition) at 1uM
CC12CCCCC1(O)[N+](=O)C1=C(CCCC1)N2[O-] (centres unmarked)	15.1%
Cc1ccc(N(Cc2cc3ccccc3[nH]c2=O)C(=O)c2cccs2)cc1	-0.954%
Cc1n[nH]c(C)c1C(=O)CC1(O)C(=O)N(CCc2ccccc2)c2ccc(Cl)cc21 (centres unmarked)	-1.42%
Cc1ccc(S(=O)(=O)C2CS(=O)(=O)CC2O)cc1 (centres unmarked)	18.4%
CCOC(=O)N1CCN(C(=O)COC(=O)c2ccccc2NCCO)CC1	9.6%
O=C(O)CCC(=O)NNC(=O)c1cccs1	15.5%
CCOc1ccc(N(C)C(=O)CCc2nnc3ccc(N4CCCC4)nn23)cc1	11%
C=C(C)C1Cc2cc3ccc(=O)oc3cc2O1 (centres unmarked)	-0.867%
Cl.OCCNc1nc2ccccc2n1CCN1CCCCC1	-10.1%
COCc1cc(C2SCC(=O)Nc3c2c(=O)[nH]n3C(C)C)ccc1OC (centres unmarked)	-0.346%
Clc1nccc(NCc2ccccc2)n1	13.6%
COc1ccc(N2CCN(C(=O)CN(Cc3ccc(Cl)cc3)S(C)(=O)=O)CC2)cc1	9.57%
CCOC(=O)c1ccc(NC(=O)CSc2nnc(COc3ccccc3OC)n2C)cc1	3.73%
Cc1ccccc1NC(NC(=O)c1cccs1)C(Cl)(Cl)Cl (centres unmarked)	16.1%
CC1(C)Cc2c(cnn2-c2cccc(F)c2)C(NC(=O)CSc2ccccn2)C1 (centres unmarked)	6.26%
COc1ccc(-c2[nH]n(-c3ccc([N+](=O)[O-])cc3)c(=O)c2C=NCc2ccccc2)cc1	7.32%
CN(Cc1ccccc1)C(=O)C1CCN(S(=O)(=O)c2cc([N+](=O)[O-])ccc2Cl)CC1	-5.15%
COCCCNC(=O)c1sc2ncn(CC(=O)Nc3ccc(C)c(Cl)c3)c(=O)c2c1C	7.46%
CCOC(=O)C1=C(C)N=c2s/c(=C/c3ccccc3)c(=O)n2C1c1ccc(OC)c(OC)c1 (centres unmarked)	11.4%
O=C(CCS(=O)(=O)c1ccccc1)Nc1ccc(S(=O)(=O)Nc2ncccn2)cc1	16.7%
